# Results: the BET-seq Pho4 binding data (Le et al. 2018)
# Some of the results follow. Values were computed here from the reads of four pooled replicates and scatter widely.
# Target: T1, Pho4 (S. cerevisiae) (UniProt P07270)
# T1 sequence: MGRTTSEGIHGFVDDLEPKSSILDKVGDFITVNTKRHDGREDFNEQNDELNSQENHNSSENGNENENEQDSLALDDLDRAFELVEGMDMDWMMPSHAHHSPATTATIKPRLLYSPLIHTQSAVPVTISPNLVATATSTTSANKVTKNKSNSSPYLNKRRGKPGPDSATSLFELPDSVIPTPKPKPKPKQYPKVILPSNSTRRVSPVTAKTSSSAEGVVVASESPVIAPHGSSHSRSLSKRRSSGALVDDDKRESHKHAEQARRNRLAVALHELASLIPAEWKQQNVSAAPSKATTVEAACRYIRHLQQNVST
# Experiment: relative binding free energy (BET-seq); higher = weaker binding
# Conditions: reference: library average
row,Sequence,relative binding free energy [kcal/mol]
1,TGTGGCACGTGGGACG,-0.22
2,TGGTGCACGTGTTGAA,0.01
3,TTTTACACGTGTTGAT,0.11
4,AATCGCACGTGGTTAA,0.02
5,AGTGACACGTGATGTC,0.25
6,TTGCACACGTGATTTG,0.12
7,AAATCCACGTGTGGGG,0.04
8,TGGTTCACGTGAGAGT,0.37
9,TTAGACACGTGGGTGG,-0.02
10,ATTAGCACGTGAGGTT,0.24
11,GAGTACACGTGAGTAG,0.21
12,GAAGGCACGTGTAGGA,-0.07
13,ATGCGCACGTGAGAGG,0.12
14,TGGGACACGTGAGAGT,0.19
15,TGGTTCACGTGTCATT,0.29
16,AATTGCACGTGATGTT,0.17
17,TGTGTCACGTGGAAGA,0.07
18,TATATCACGTGGGGGT,0.07
19,TATGTCACGTGTGCGT,0.02
20,GGGGACACGTGGATTA,0.1
21,TGCGTCACGTGTCGGT,0.07
22,GGGATCACGTGGTGGT,0.24
23,TGAGTCACGTGATGGA,0.3

row,Sequence,relative binding free energy [kcal/mol]
1,AATTTCACGTGATTGT,0.34
2,CGTTTCACGTGGTAGA,0.13
3,AATGCCACGTGGTGGG,-0.16
4,TAGTACACGTGGAGTT,0.14
5,GAATACACGTGTTAGT,0.14
6,CGTAGCACGTGAAGTT,0.19
7,TTGTTCACGTGTATCG,0.17
8,AGAGGCACGTGTTAGC,-0.05
9,ATTTTCACGTGGTACT,0.18
10,CGCTTCACGTGGGGAT,0.11
11,TCTTACACGTGGGTGT,-0.02
12,TTATGCACGTGAATGG,0.3
13,TTAGCCACGTGTGATT,0.02
14,TTACACACGTGTGGGA,0.02
15,CGGGGCACGTGGTAGG,-0.13
16,CGACTCACGTGGTGTG,0.03
17,TCAATCACGTGGGAGG,0.1
18,CAGTACACGTGTTGGG,0.08
19,CTGTGCACGTGATGGT,0.08
20,AGAGTCACGTGGTCAT,0.06
21,TGGTGCACGTGTGGCA,0.03
22,TAACACACGTGTGGGG,-0.06
23,GGAGCCACGTGCGGTG,-0.11

row,Sequence,relative binding free energy [kcal/mol]
1,CGGGTCACGTGTCTGC,0.29
2,GGAAGCACGTGGTATG,-0.07
3,TACAGCACGTGGGGGC,-0.3
4,ATTTCCACGTGATTGT,0.04
5,GTGGCCACGTGAGAAG,0.27
6,TCCTTCACGTGGTTTG,0.18
7,ATGGTCACGTGTTTAG,0.16
8,GGATGCACGTGTAGTG,-0.01
9,AGTAACACGTGTAGTA,-0.07
10,TGAGGCACGTGACTGA,-0.02
11,TGCTTCACGTGATTCG,0.28
12,GTGGCCACGTGGTATT,-0.21
13,CGGGACACGTGGTGTA,0.03
14,AGATGCACGTGATAAG,0.26
15,GGTATCACGTGTATGG,0.22
16,GGCTTCACGTGAGGCA,0.56
17,TCAGGCACGTGTATGG,-0.09
18,TTAAACACGTGGTAGG,-0.09
19,AGTATCACGTGGGGCG,0.05
20,CGGCGCACGTGGTTGT,-0.29
21,TAGGGCACGTGCAGTA,-0.16
22,GTGGCCACGTGGGGTA,-0.21
23,TATGGCACGTGTTACG,-0.25

row,Sequence,relative binding free energy [kcal/mol]
1,TTGTACACGTGCAAGT,0.2
2,AGTAGCACGTGGAGAT,-0.08
3,TTGTTCACGTGGTGCA,0.11
4,ACGGGCACGTGGTGTA,-0.22
5,ATTGTCACGTGGGAAA,-0.1
6,ATGCGCACGTGTGGTT,-0.12
7,GCTTACACGTGTTGTC,0.37
8,GTCTTCACGTGTTTAT,0.41
9,AGGAACACGTGGAAGG,0.16
10,TGGAGCACGTGGCGGG,-0.21
11,TGGGCCACGTGAGTGC,0.05
12,TAGCTCACGTGGGTGG,0.05
13,GATAGCACGTGGCGGT,-0.26
14,TTAATCACGTGAAATG,0.36
15,GTGGACACGTGTCAGG,-0.11
16,TAATTCACGTGTTCGA,0.3
17,TGGGGCACGTGTGCCG,-0.08
18,TCGTTCACGTGATGAG,0.32
19,ATTGCCACGTGTAGAG,0.01
20,GGGTGCACGTGTGCCG,-0.03
21,ACGTGCACGTGGTATG,-0.24
22,GTCATCACGTGGGCTG,0.11
23,ACTGACACGTGTGGTG,-0.02

row,Sequence,relative binding free energy [kcal/mol]
1,TAGAGCACGTGGTTAA,-0.16
2,TTGGGCACGTGATGCT,-0.13
3,TAAGGCACGTGTGTAT,-0.13
4,TCAGGCACGTGGGTAT,-0.09
5,TACTACACGTGTTTTG,0.01
6,CGGATCACGTGTGTGG,0.2
7,TGTTACACGTGATGTA,0.26
8,GGTCGCACGTGTTGAA,-0.03
9,TTTGCCACGTGGCTGT,-0.2
10,TTTCGCACGTGAGGAA,0.33
11,TGAGGCACGTGTTCTA,-0.18
12,AGGAGCACGTGTTAAT,0.01
13,GAATTCACGTGTATTG,0.19
14,ATAGTCACGTGATAAG,0.17
15,TTCTACACGTGTAGTT,0.32
16,TGGTACACGTGATGGT,0.18
17,AGTGGCACGTGGTCTT,-0.15
18,GGTTGCACGTGGTACG,0.01
19,GAATTCACGTGTATTT,0.39
20,GGGTTCACGTGGTTCA,0.34
21,TTTTACACGTGCTTGT,0.05
22,CGTAGCACGTGTCTGG,-0.04
23,TGTATCACGTGAGGGA,0.2
